# Reference: PubChem BioAssay AID1347430 (National Center for Advancing Translational Sciences (NCATS), 2020)
# Out of some 91,000 compounds screened, about 130 (0.14%) were called active. Inconclusive results, whose numbers are uncertain, are shown with a selection of clear calls. Calls come from the whole dose curve; as a rule, active = well fitted inhibition curve with a large enough effect; inconclusive = small, poorly fitted or top-dose-only effect; inactive = flat fitted curve, though single readings scatter. Where the call is inconclusive, the potency comes from a doubtful curve fit.
# Tested on: Uracil-DNA glycosylase
# Assay: Primary qHTS assay for inhibitors of Activation Induced Cytidine Deaminase (AID): UDG Counterscreen signal; note: nearly all actives have a fitted effect of over 65% in size
# Details: FRET deamination/UDG coupled assay, UDG read, 4 h; series mostly up to 115 µM
# Potency is the fitted concentration of half-maximal effect; tags give direction and shape of the fitted curve.
row,SMILES,Potency
1,CCOc1ccc(C(CC(=O)Nc2cc(OC)cc(OC)c2)N2Cc3ccccc3C2=O)cc1OC (stereo not given),"inconclusive: 89.1 µM [inhibitor, single point]"
2,CCOc1ccc(NC(=O)CSc2nnc(-c3ccc(C)cc3)c(-c3ccc(C)cc3)n2)cc1,"inconclusive: 89.1 µM [inhibitor, single point]"
3,Cc1oc2ncn(CC(C)C)c(=O)c2c1C(=O)NCCCN(Cc1ccccc1)C(C)C,"inconclusive: 89.1 µM [inhibitor, partial curve, poor fit]"
4,CC(C(=O)NCc1ccco1)n1cnc2c1c(=O)n(C)c(=O)n2C (stereo not given),inactive
5,Fc1ccc(N/N=C/c2ccccc2Cl)c(F)c1,inactive
6,O=C(NCc1ccc2c(c1)OCO2)c1ccc(-c2csc(C3CC3)n2)cc1,inactive
7,CCOC(=O)c1ccccc1NC(=O)Cn1c(=O)n(Cc2ccccc2)c(=O)c2c(C)c(C)sc21,"inconclusive: 79.4 µM [inhibitor, partial curve, poor fit]"
8,CN(C)c1ccc(C(CNS(=O)(=O)c2ccc(Br)cc2)N2CCOCC2)cc1 (stereo not given),"inconclusive: 79.4 µM [inhibitor, single point]"
9,CCOC(=O)c1ccc(Oc2c(C)oc3cc(OCC(=O)c4ccc(OC)cc4)ccc3c2=O)cc1,inactive
10,CCCCC(=O)Nc1oc2c(C)cccc2c(=O)c1-c1cc(OC)c(OC)c(OC)c1,inactive
11,CCOC(=O)C1CCN(S(=O)(=O)c2cc(-c3cc(C)no3)ccc2C)CC1,"inconclusive: 79.4 µM [inhibitor, single point]"
12,Cc1ccccc1/C=N/Nc1ccc(S(=O)(=O)Nc2ccc(Cl)cc2)cc1[N+](=O)[O-],inactive
13,CCCCc1ccc(C(=O)N/C(=C\c2ccc(C)cc2)C(=O)NC2CCCCC2)cc1,"inconclusive: 79.4 µM [inhibitor, partial curve, poor fit]"
14,CCS(=O)(=O)N1CCc2cc(C(=O)Nc3cc(Cl)ccc3C)ccc21,"inconclusive: 89.1 µM [inhibitor, single point]"
15,O=C(CSc1nnc(CNC(=O)c2c(F)cccc2Cl)o1)Nc1cccc(F)c1,"inconclusive: 89.1 µM [inhibitor, single point]"
16,CCOc1ccc(NS(=O)(=O)c2ccc(NC(=O)N3CCCC3)cc2)cc1,inactive
17,CC(C)Cn1c(/C=C/c2ccc(F)cc2)nc2ccccc21,inactive
18,O=C(N/N=C/c1ccc(OCc2ccccc2)cc1)c1ccc(CSCc2ccccc2)cc1,inactive
19,Cc1ccc(Cl)cc1N1CCN(C(=O)C2CCN(Cc3nc(-c4cccc(Cl)c4)oc3C)CC2)CC1,"inconclusive: 79.4 µM [inhibitor, partial curve, poor fit]"
20,Cc1ccc(Cl)cc1N1CCN(C(=O)C2CCN(Cc3nc(-c4ccc(Cl)cc4)oc3C)CC2)CC1,active: 89.1 µM

row,SMILES,Potency
1,Cn1nccc1C(=O)NCc1ccc2c(c1)CCN2C(=O)c1ccccc1,"inconclusive: 89.1 µM [inhibitor, single point]"
2,CCN1CCN(C(=O)c2ccc3c(c2)N(Cc2cccc(F)c2)C(=O)c2ccccc2S3)CC1,"inconclusive: 15.8 µM [inhibitor, partial curve, poor fit]"
3,CC(=O)c1ccc(N2CCN(S(=O)(=O)c3ccc(-c4cc(C)no4)s3)CC2)cc1,"inconclusive: 89.1 µM [inhibitor, single point]"
4,CCS(=O)(=O)CCSc1nc(-c2ccc(Br)cc2)cc(-c2ccccc2)c1C#N,"inconclusive: 89.1 µM [inhibitor, single point]"
5,CCOc1ccc(N(CC)S(=O)(=O)N2CCCC(C(=O)NCCc3ccc(OC)cc3)C2)cc1 (stereo not given),"inconclusive: 89.1 µM [inhibitor, single point]"
6,CCN(CC)CCCNC(=O)c1nn(-c2ccc(C)cc2)c(=O)c2c1c1ccccc1n2C,"inconclusive: 79.4 µM [inhibitor, partial curve, poor fit]"
7,CCOCCCN(Cc1ccco1)C(=O)c1cc2c(=O)[nH]c3ccc(C)cc3c2s1,"inconclusive: 89.1 µM [inhibitor, partial curve, poor fit]"
8,CCc1ccc(CNC(=O)c2c(C)oc3ncn(CC(C)C)c(=O)c23)cc1,"inconclusive: 79.4 µM [inhibitor, partial curve, poor fit]"
9,CCCN(Cc1ccc(C)cc1)C(=O)CSc1nnc(COc2ccccc2Cl)n1C,inactive
10,COc1ccccc1CN1CCC(CNC(=O)c2cnn(-c3ccc(Cl)cc3)c2C2CCN(C(=O)OC(C)(C)C)CC2)CC1,"inconclusive: 50.1 µM [inhibitor, partial curve, poor fit]"
11,COc1ccc(-c2cc(=O)n3[nH]c(C)nc3n2)cc1,inactive
12,Cc1nn(C)c2c1c(C(F)(F)F)cc(=O)n2C(C)C(=O)NCc1ccccc1Cl (stereo not given),"inconclusive: 100 µM [inhibitor, partial curve, poor fit]"
13,COc1ccccc1NC(=O)CSC1=Nc2ccccc2C2=NC(CC(=O)NCc3cccs3)C(=O)N12 (stereo not given),"inconclusive: 89.1 µM [inhibitor, single point]"
14,COc1ccc(-n2ncc(C(=O)N3CCOCC3)c2C2CCN(C(=O)OC(C)(C)C)CC2)cc1,"inconclusive: 100 µM [inhibitor, single point]"
15,COC(=O)c1cc(NC(=O)c2ccc3c(c2)NC(=O)c2ccccc2S3)cc(C(=O)OC)c1,inactive
16,CCC(=O)N1CCc2cc(CNC(=O)Nc3cc(Cl)ccc3C(=O)OC)ccc21,"inconclusive: 100 µM [inhibitor, single point]"
17,COc1ccccc1CN1CCC(CNC(=O)c2cnn(-c3ccc(C)c(C)c3)c2C2CCN(C(=O)OC(C)(C)C)CC2)CC1,inactive
18,Cc1cccc(NC(=O)CSc2nc(=O)n(Cc3cccnc3)c3c2CCC3)c1C,"inconclusive: 100 µM [inhibitor, single point]"
19,COc1ccc(-c2cn3nc(N4CCC(C(=O)Nc5ccc(C)cc5)CC4)sc3n2)cc1,"inconclusive: 89.1 µM [inhibitor, single point]"
20,O=C(c1ccc(CS(=O)(=O)c2c(Cl)cccc2Cl)o1)N1CCN(c2ccccc2)CC1,"inconclusive: 79.4 µM [inhibitor, partial curve, poor fit]"
